Measured values reported in the supplement of paper PMC3334620.
In all, about 33,000 sequences were measured (“E-score (-0.5 to 0.5)”: median about -0.054, highest 2% from about 0.35 on). The list shows a part of the results.

Each sequence was assayed against T1, Stb5 (UniProt P38699) (assay: PBM E-score (8-mer binding enrichment) (E-score (-0.5 to 0.5)); higher = stronger / more preferred TF binding; most listed sequences are background and not binding sites). Settings: protein concentration: 200 nM; construct: GST-full length.
T1 sequence: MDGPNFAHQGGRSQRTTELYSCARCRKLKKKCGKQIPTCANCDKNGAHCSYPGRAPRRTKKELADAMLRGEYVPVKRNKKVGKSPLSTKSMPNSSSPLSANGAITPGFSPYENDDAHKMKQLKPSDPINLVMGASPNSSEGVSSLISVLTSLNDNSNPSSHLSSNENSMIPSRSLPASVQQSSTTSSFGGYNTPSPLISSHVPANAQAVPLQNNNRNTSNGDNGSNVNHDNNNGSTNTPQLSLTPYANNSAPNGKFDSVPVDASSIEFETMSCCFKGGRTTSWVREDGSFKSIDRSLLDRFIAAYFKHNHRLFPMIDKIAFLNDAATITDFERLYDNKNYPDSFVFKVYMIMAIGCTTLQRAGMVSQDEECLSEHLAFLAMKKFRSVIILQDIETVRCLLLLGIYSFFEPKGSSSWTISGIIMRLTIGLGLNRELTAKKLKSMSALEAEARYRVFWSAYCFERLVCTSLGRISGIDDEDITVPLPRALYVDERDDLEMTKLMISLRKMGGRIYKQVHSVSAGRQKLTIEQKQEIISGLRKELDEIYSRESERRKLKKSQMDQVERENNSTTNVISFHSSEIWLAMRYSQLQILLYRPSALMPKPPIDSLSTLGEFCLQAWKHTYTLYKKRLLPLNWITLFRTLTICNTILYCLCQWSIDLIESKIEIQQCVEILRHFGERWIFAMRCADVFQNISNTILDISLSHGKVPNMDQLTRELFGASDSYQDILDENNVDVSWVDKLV
Method in brief: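 For each ungapped eight-base word taken together with its reverse complement, the Universal PBM Analysis Suite assigned an E-score. Binding data came from GST-tagged yeast transcription factors, applied at about 100-200 nM, on universal all-10-mer Agilent arrays made double-stranded by primer extension. Fluorescent anti-GST marked bound protein, and scans were normalised with masliner.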

| Sequence | PBM E-score |
| --- | --- |
| AGACGATC | -0.0318 |
| ACTGGGAC | -0.183 |
| AACAACGT | 0.0245 |
| GCACAGCA | -0.101 |
| ATCGTCTG | 0.029 |
| CCCGCGGG | 0.361 |
| GGACCGTA | 0.133 |
| ACGTGCCA | -0.0713 |
| CAGGCTAG | -0.239 |
| ACGCACGA | 0.0453 |
| CTGTGAAA | -0.199 |
| ATAGTTCG | 0.0392 |
| AAATTCCT | -0.0227 |
| CGTGTCAG | 0.0272 |
| ATATACAT | -0.028 |
| CCTCCAGC | -0.25 |
| GAAACTAC | -0.126 |
| CTTGTTCC | 0.0415 |
| CATTGTAG | -0.105 |
| ACGACCTC | 0.0629 |
| AGGTATTG | -0.198 |
| GAACACTA | -0.184 |
| ATTGTTTA | -0.27 |
| CTCGAACC | -0.0371 |
| CACAGGAG | -0.148 |

| Sequence | PBM E-score |
| --- | --- |
| CTGTGTGC | -0.193 |
| CGCTACGA | 0.0937 |
| CGTGCCCC | -0.0709 |
| TAACAGTA | -0.227 |
| ACGTTACT | -0.186 |
| TCAAAGCA | -0.0769 |
| AACACAAA | -0.0729 |
| CATTGTCG | 0.126 |
| ACAGTCAA | -0.247 |
| GCGAGCTA | -0.101 |
| AGAGTAAA | -0.179 |
| GGACGCAA | 0.148 |
| ATAGTAAC | 0.0164 |
| ATGCGTCC | 0.0995 |
| ACCTGAAG | -0.043 |
| GCGGACGA | 0.198 |
| AGCGCGTA | -0.0799 |
| AAATAGGT | 3e-05 |
| AGTAAACT | -0.0545 |
| ATCCCGAA | 0.191 |
| TAAATTGA | -0.0471 |
| AGAGCATG | -0.229 |
| AATGTTCT | -0.238 |
| CTACTAAG | 0.105 |
| GTAGTCTA | -0.218 |

| Sequence | PBM E-score |
| --- | --- |
| CGGTACTA | 0.474 |
| TGCATACA | -0.201 |
| AGAGGGAA | -0.199 |
| CCGCAACC | 0.157 |
| AATCGTTG | -0.104 |
| CGGCAGAG | -0.0686 |
| AAGTCATG | -0.0217 |
| ACACATTC | -0.0785 |
| CACTGAGA | -0.182 |
| AAATGAGA | -0.261 |
| GCGAGCAA | -0.102 |
| CTCTAAAC | -0.0115 |
| AACTCTAA | 0.0552 |
| GGATGATA | 0.0598 |
| CTGGCCAG | -0.418 |
| ACGAGATG | -0.119 |
| GCTCTCTA | -0.164 |
| GCGTAAAA | 0.131 |
| ATGCGATG | -0.0566 |
| CGTTGAAA | 0.0722 |
| CTTTTAGC | -0.118 |
| TCACCAAA | -0.103 |
| CCACTGAA | -0.0427 |
| CATTAGCC | -0.018 |
| AGCCGACC | 0.167 |

| Sequence | PBM E-score |
| --- | --- |
| GTTACCTA | -0.244 |
| CGAAAACA | -0.0503 |
| CAGGCTAA | -0.13 |
| ATTTCCGC | 0.27 |
| CGAGAGCA | -0.0348 |
| AGATCCGA | 0.304 |
| AACCGGTC | 0.272 |
| CTTGAAAA | -0.216 |
| AATTTCCC | 0.0307 |
| ATCCCCTA | -0.101 |
| AGACCGGA | 0.222 |
| AGCACAAG | -0.165 |
| ACGCTCAA | -0.0749 |
| CGCGCCCG | 0.11 |
| AAGCCTGT | -0.204 |
| CGCCGCAC | 0.216 |
| CGACTGTC | -0.0325 |
| CGCAAATC | 0.0539 |
| CTGCCACA | -0.133 |
| TCGTAGAA | -0.206 |
| ATAGGTGC | -0.0237 |
| CCCCGGCA | 0.313 |
| CATTACAG | -0.0483 |
| AGGCATAG | -0.133 |
| CGAGATAA | 0.029 |

| Sequence | PBM E-score |
| --- | --- |
| CGGGTTAA | 0.221 |
| GGGGTGTA | 0.178 |
| CGCCATCA | 0.0442 |
| AGCACCTA | -0.104 |
| CATGACGG | 0.149 |
| ACTGTATC | -0.0524 |
| AACGCACC | 0.153 |
| ATACAGTC | 0.0184 |
| GGAAATAA | 0.274 |
| AAAAGGGG | -0.0511 |
| ATCTTCGC | 0.0285 |
| ATGGAATG | -0.0749 |
| TATCCAGA | -0.0392 |
| CCGGGCCG | 0.31 |
| AACAGAAC | -0.101 |
| CACCTTAC | -0.0754 |
| TAGAAGGA | 0.0207 |
| AGGCTCTG | -0.403 |
| ACACATGA | -0.254 |
| ATTGATTC | -0.0553 |
| ATAGCGTG | -0.0578 |
| AGGATAGC | -0.116 |
| TCAACTGA | -0.194 |
| AAATGGTG | 0.0218 |
| ACCGTCTG | 0.238 |

| Sequence | PBM E-score |
| --- | --- |
| GGAAACGA | -0.208 |
| AAGCAGCC | -0.289 |
| AGAATTAA | -0.166 |
| TCCGCCGA | 0.346 |
| AACCGGTT | 0.166 |
| AATGCCAT | -0.0216 |
| CAGGTCAG | -0.188 |
| GCAGGTCA | -0.17 |
| AACCGGGT | 0.205 |
| ACACAGAA | -0.184 |
| GATATAAA | 0.146 |
| GATTATGC | 0.0744 |
| ACGGCAAC | 0.105 |
| AAGAACCT | -0.256 |
| CCCGAGCG | 0.175 |
| CCTAATGA | -0.235 |
| CTATGTCA | -0.221 |
| ACTATTGG | -0.114 |
| AGGCTTTC | -0.158 |
| ACAACTTG | -0.219 |
| CGTTGAGA | 0.0833 |
| ACCCTTGC | -0.0893 |
| ACACCACA | -0.00034 |
| GTAATTAA | 0.0741 |
| CTAACGTA | -0.0684 |

| Sequence | PBM E-score |
| --- | --- |
| GGTATCTA | 0.151 |
| AGAGTGAC | -0.255 |
| TCATATGA | 0.201 |
| ACGCTCTC | 0.0416 |
| GGCATCTA | 0.0687 |
| GGACGTCA | -0.046 |
| ACAAACTA | -0.19 |
| ATTCTTAG | -0.0603 |
| ACACCCTG | -0.329 |
| CCCCCGTC | 0.233 |
| AATTCTCG | -0.186 |
| GGCATGAA | 0.0813 |
| CCGCGTCC | 0.106 |
| AATGTAAT | 0.0627 |
| AGAACGCC | -0.0964 |
| AATGCAAA | -0.0786 |
| GATTAACC | -0.0011 |
| AAAAAATA | -0.0888 |
| TATACCAA | -0.106 |
| AGTTCTCA | -0.0835 |
| GTATTGAA | -0.0683 |
| CGGCGAAG | 0.116 |
| TCTGGCAA | -0.27 |
| GCTATCAA | 0.0386 |
| CGCGCGTA | 0.123 |

| Sequence | PBM E-score |
| --- | --- |
| TGTCTCAA | -0.145 |
| GTCTACCA | -0.222 |
| AACAAATC | 0.0491 |
| AGGTTATG | -0.0259 |
| AGCTCGAT | -0.253 |
| GATCTGGA | -0.087 |
| GAAGCTAA | -0.0899 |
| CTGTAAAA | -0.0191 |
| GCTACTCC | 0.00567 |
| ACAGTATA | -0.0674 |
| ACTGGTTC | -0.0622 |
| CCGCTGCG | 0.33 |
| ACTATTAT | 0.0237 |
| GGAGCCAC | -0.0783 |
| ATGGTCTC | -0.248 |
| ATCGAGCA | -0.147 |
| CAAATGGG | -0.245 |
| CGCAGGCA | 0.103 |
| CCAACCAG | -0.144 |
| ATACGTAA | 0.0168 |
| CACGCCGA | 0.133 |
| CTCTCTAC | -0.0828 |
| CCGACACG | 0.285 |
| ATGGGTGA | -0.12 |
| GTTCCACA | -0.0543 |

| Sequence | PBM E-score |
| --- | --- |
| CGGTCGCA | 0.265 |
| GGGCACCA | -0.0676 |
| CGGTCCCA | 0.358 |
| CCGGCGAA | 0.262 |
| AGTAAGTA | -0.0996 |
| ACCCTGTC | -0.137 |
| AATCCGGG | 0.233 |
| CTCTCCCC | -0.1 |
| CGTCACGA | -0.0659 |
| AGGCACTC | -0.258 |
| GCTTTTCA | -0.0542 |
| CGGCTACA | 0.0788 |
| AATAGATA | -0.119 |
| AATGTTGT | -0.19 |
| CTCGCGAG | -0.148 |
| GTCACGTA | -0.171 |
| ATGGTACA | -0.156 |
| AGGGGTTG | -0.243 |
| GAAGAAGC | -0.127 |
